Screen size: about 310,000 compounds; about 14,000 (4.5%) showed an effect of 50% or more. Effects have a minus sign here. This is one part of the list.
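Further: peak tail current of the secondary pulse compared with the same well before compound.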

This experiment deals with human ether-à-go-go-related gene (hERG) potassium channel (human, UniProt Q12809). As to the kind of experiment: primary screen, population patch clamp on CHO cells stably expressing hERG.
Chain of human ether-à-go-go-related gene (hERG) potassium channel (Q12809 whole entry, looked up): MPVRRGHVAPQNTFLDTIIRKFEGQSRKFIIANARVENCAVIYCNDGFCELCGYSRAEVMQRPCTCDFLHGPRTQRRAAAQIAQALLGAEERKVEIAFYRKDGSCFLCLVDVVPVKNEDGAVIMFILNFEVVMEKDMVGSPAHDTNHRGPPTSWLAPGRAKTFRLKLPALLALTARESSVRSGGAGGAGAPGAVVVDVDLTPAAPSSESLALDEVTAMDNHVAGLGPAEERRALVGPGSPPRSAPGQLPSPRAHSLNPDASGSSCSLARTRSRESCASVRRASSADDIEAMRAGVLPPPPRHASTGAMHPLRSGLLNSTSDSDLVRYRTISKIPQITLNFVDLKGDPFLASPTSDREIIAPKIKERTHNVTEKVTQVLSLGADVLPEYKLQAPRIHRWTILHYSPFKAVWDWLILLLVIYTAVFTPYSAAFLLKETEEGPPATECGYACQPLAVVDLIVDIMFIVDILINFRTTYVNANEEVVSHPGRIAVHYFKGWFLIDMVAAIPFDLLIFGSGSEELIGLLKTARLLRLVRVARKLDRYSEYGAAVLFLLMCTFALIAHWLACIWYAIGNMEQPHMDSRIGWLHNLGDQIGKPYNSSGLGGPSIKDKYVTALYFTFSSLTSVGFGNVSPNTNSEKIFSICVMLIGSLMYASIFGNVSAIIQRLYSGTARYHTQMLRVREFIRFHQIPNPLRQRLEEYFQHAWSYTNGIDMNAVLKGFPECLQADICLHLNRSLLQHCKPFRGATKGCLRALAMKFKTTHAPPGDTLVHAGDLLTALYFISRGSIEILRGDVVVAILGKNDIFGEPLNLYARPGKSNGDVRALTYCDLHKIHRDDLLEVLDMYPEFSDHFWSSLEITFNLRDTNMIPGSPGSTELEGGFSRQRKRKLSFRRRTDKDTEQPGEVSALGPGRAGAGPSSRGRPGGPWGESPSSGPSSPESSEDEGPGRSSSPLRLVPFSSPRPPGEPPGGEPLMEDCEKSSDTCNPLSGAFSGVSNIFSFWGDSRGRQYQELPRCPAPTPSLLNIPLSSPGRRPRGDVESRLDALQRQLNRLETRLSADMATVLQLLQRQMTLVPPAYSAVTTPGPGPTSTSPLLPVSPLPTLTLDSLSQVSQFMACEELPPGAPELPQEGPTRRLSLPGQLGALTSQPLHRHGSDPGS
Consider `CCS/C(N)=N/N=C/c1cc(C)ccc1O`, for which the “hERG current change (%, negative = inhibition) at 10uM” value is recorded as -2.73%.
For `CN1C(=O)CN=C(c2ccccc2Cl)c2cc(Br)ccc21` the value was -18.9%.
Consider `Cc1ccc(S(=O)(=O)N(C)CC(=O)N2CCN(Cc3ccccc3)CC2)cc1`, for which the “hERG current change (%, negative = inhibition) at 10uM” value was -24.6%.
To `Cc1cc(C)c2c(c1)NC(c1cc3c(cc1Br)OCO3)C1CC=CC21` (centres unmarked) belongs 5.68%; to `CCCCNC(=S)NCc1ccc2c(c1)cc(C)n2C`, -10.3%.
With `COc1ccc(NC(=O)C2CCCN(S(=O)(=O)c3c(C)n[nH]c3C)C2)c(OC)c1` (centres unmarked), the “hERG current change (%, negative = inhibition) at 10uM” value is given as -0.203%.
Turning to `CC(=O)c1c(C)n(-c2ccc(C)cc2)c2ccc(O)cc12`, the “hERG current change (%, negative = inhibition) at 10uM” value was 12%.
For `CCN1CCN(c2oc(-c3ccc([N+](=O)[O-])cc3)nc2C#N)CC1` the value was -53.1%; for `CC(NC(=O)COC(=O)c1ccccc1Nc1ccccc1)c1ccccc1` (centres unmarked), 3.62%; for `Nc1nnnn1/N=C/c1cccc(Br)c1`, 2.91%.
In the case of `Cc1ccc([N+](=O)[O-])cc1S(=O)(=O)Nc1ccc(C(=O)NCc2ccccn2)cc1`, the “hERG current change (%, negative = inhibition) at 10uM” value was 11.7%.
In the case of `CCCCNC(=O)OCC(CC)NC(=O)OCC(C)C` (centres unmarked), the “hERG current change (%, negative = inhibition) at 10uM” value is on record as 5.18%.
As to `CN(CC(=O)N1CCCC1)S(=O)(=O)c1cccc(Cl)c1`, the “hERG current change (%, negative = inhibition) at 10uM” value came to 9.85%.
`CCn1ncc(Br)c1C(=O)Nc1cc(C(=O)OC)ccc1C(=O)OC`: the “hERG current change (%, negative = inhibition) at 10uM” value is -3.95%.
For `CC(=O)Nc1ccc(S(=O)(=O)N2CCN(Cc3csc(C)n3)CC2)cc1`, the “hERG current change (%, negative = inhibition) at 10uM” value was 12.4%.
Regarding `Cc1nnc(NC(=O)C2CCCCC2)s1`, the “hERG current change (%, negative = inhibition) at 10uM” value is recorded as 15.8%.
For `Br.COc1ccc(N=C/C=C2/C=C(c3ccccc3)OC(C)(C)O2)cc1`, the “hERG current change (%, negative = inhibition) at 10uM” value was -49.1%.
Take `O=C(Cc1ccccc1)NC(=S)Nc1ccc(N2CCCCC2)cc1`: the “hERG current change (%, negative = inhibition) at 10uM” value came to 11.9%.
As to `CCn1c2ccccc2c2cc(NC(=O)c3coc(=O)c(Br)c3)ccc21`, the “hERG current change (%, negative = inhibition) at 10uM” value stood at 7.89%.
Regarding `CCN1CCCc2cc(CN(CCN3CCOCC3)C(=S)Nc3cccc(C)c3)ccc21`, the “hERG current change (%, negative = inhibition) at 10uM” value stood at 9.57%.
As to `O=C(CSc1ccccc1)Nc1ccc(-c2nc3ccccc3[nH]2)cc1`, the “hERG current change (%, negative = inhibition) at 10uM” value stood at 22.5%.
For the compound `CSc1ccccc1NC(=O)CN1CCN(c2ccccn2)CC1`, the “hERG current change (%, negative = inhibition) at 10uM” value was -20.1%.
`CCOc1cc(/C=C2\SC(=N)N(c3nccs3)C2=O)ccc1OCCN1CCOCC1`: the “hERG current change (%, negative = inhibition) at 10uM” value is reported as -26.3%.
Take `CCn1cc(C(=O)NCc2cccnc2)c(=O)c2cc(F)c(N3CCN(C(=O)c4ccco4)CC3)cc21`: the “hERG current change (%, negative = inhibition) at 10uM” value is -37.6%.
With `CCOC(=O)c1cnc(SC)nc1Sc1ccccc1Cl`, the “hERG current change (%, negative = inhibition) at 10uM” value came to 14.9%.
Take `COc1cccc(/C=N/NC(=O)c2[nH]nc3c2CCc2ccccc2-3)c1O`: the “hERG current change (%, negative = inhibition) at 10uM” value stood at 12%.
On to `O=C(NCCc1ccccc1)C(c1cccs1)N(C(=O)CCl)c1ccc(Cl)cc1` (centres unmarked), for which the “hERG current change (%, negative = inhibition) at 10uM” value amounted to 1.35%.
For `CN1CCN(c2ccc(NC(=O)c3ccc4c(c3)OCCO4)cc2Cl)CC1` the value was -81.2%; for `CC1=C(C(=O)N2CCOCC2)C(c2c(C)cc(C)cc2C)NC(=S)N1` (centres unmarked), 10.5%; for `Cc1ccc(C2/C(=C(/O)c3ccc4c(c3)CC(C)O4)C(=O)C(=O)N2CCCn2ccnc2)cc1` (centres unmarked), 0.311%.
In the case of `O=S1(=O)CCN=C2SC3=C(CCCC3)N21`, the “hERG current change (%, negative = inhibition) at 10uM” value amounted to 1.25%.
For `Cn1c(SCc2ccc(Br)cc2)nc2c(c1=O)SCC2` the value was -18.6%.
Turning to `CC(=O)Nc1ccc(S(=O)(=O)Nc2nc3ccccc3nc2N2CCc3ccccc3C2)cc1`, the “hERG current change (%, negative = inhibition) at 10uM” value stood at 3.02%.
For the compound `CC(C)CN1CCN(Cc2nc3ccccc3s2)CC1CCO` (centres unmarked), the “hERG current change (%, negative = inhibition) at 10uM” value is -56.8%.
To `COc1ccc(Cl)cc1NC(=O)Nc1ccc(C(=O)N2CCOCC2)cc1` belongs -6.56%.
On to `CC(Oc1ccccc1)C(=O)Nc1c2c(nn1-c1ccccc1)CS(=O)(=O)C2` (centres unmarked), for which the “hERG current change (%, negative = inhibition) at 10uM” value stood at 18.2%.
In the case of `COc1ccc(C)cc1S(=O)(=O)NC1CC1`, the “hERG current change (%, negative = inhibition) at 10uM” value amounted to 27.1%.
`COC(=O)c1ccc(C(=O)OC)c(NC(=S)N2CCN(c3ccccn3)CC2)c1`: the “hERG current change (%, negative = inhibition) at 10uM” value is reported as -6.96%.
As to `O=C(NNC(=O)C1C2CCCCC21)c1coc(=O)c(Br)c1` (centres unmarked), the “hERG current change (%, negative = inhibition) at 10uM” value is 7.28%.
Regarding `COCCCN1C(=O)C(=O)/C(=C(/O)c2ccc(OCC(C)C)cc2)C1c1cccnc1` (centres unmarked), the “hERG current change (%, negative = inhibition) at 10uM” value was found to be 4.37%.
Consider `c1ccc(-c2cn3nc(-c4ccccc4)cnc3n2)cc1`, for which the “hERG current change (%, negative = inhibition) at 10uM” value was determined as 25.6%.
As to `CCn1c(COc2cccc3ccccc23)nnc1SCC(=O)OC1CCCCC1`, the “hERG current change (%, negative = inhibition) at 10uM” value is -2.91%.
To `Cc1ccc(N=CC=C2OC(C)(C)C(C)(C)O2)cc1` belongs -3.88%.
For the compound `CCn1c(SCC(N)=O)nc2c(c1=O)C1(CCCC1)Cc1ccccc1-2`, the “hERG current change (%, negative = inhibition) at 10uM” value is -45%.
